# Results taken from the supplement of paper PMC3334620.
# The full ranking holds about 33,000 sequences; the median of “E-score (-0.5 to 0.5)” is about -0.054, and the highest 2% start at about 0.35. The list shows a part of the results.
# Target: T1, Stb5 (UniProt P38699)
# T1 sequence: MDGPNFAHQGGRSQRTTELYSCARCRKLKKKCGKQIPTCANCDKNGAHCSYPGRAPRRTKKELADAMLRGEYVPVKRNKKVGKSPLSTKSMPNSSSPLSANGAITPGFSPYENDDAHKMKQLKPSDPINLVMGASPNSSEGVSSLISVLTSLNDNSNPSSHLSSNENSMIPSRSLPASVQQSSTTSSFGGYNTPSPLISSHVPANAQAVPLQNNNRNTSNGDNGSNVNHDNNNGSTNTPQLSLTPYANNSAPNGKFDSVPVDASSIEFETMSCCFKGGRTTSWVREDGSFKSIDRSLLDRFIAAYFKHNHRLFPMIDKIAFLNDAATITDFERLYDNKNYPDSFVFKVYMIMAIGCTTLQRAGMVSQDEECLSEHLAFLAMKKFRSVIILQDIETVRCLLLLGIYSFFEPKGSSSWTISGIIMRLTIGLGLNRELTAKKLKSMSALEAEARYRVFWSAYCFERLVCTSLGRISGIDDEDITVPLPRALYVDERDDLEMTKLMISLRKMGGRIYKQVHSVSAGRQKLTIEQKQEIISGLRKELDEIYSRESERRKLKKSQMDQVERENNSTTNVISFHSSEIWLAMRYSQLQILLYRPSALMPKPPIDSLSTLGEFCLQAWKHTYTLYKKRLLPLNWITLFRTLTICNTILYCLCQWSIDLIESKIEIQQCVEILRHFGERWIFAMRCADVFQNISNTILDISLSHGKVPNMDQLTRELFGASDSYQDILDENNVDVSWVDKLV
# Experiment: PBM E-score (8-mer binding enrichment) (E-score (-0.5 to 0.5)); higher = stronger / more preferred TF binding; most listed sequences are background and not binding sites
# Settings: protein concentration: 200 nM; construct: GST-full length
# In short: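 The E-score, a modified Wilcoxon-Mann-Whitney statistic, was computed by the Universal PBM Analysis Suite for every ungapped eight-base word pooled with its reverse complement. Scans behind it were normalised with masliner after bound GST-tagged yeast transcription factors were detected with fluorescent anti-GST. The proteins, at about 100-200 nM, had been applied to universal all-10-mer Agilent arrays made double-stranded by primer extension.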
row,Sequence,PBM E-score
1,GTCGAGGA,-0.246
2,ACCATGCC,0.0581
3,AACCACAG,-0.119
4,CAGGCCGG,0.11
5,GCCGTACC,0.285
6,ACGAAATA,-0.0345
7,GCACAGTA,-0.146
8,CGACTTTC,0.112
9,CATGGGAC,-0.0822
10,AACGGTCA,0.23
11,GCAGGGCC,-0.0449
12,GATGGCAA,-0.0254
13,GGACGGAC,0.359
14,AGTCCTTG,-0.184
15,CGCCGCTA,0.412
16,AGTGCCCA,0.0998
17,TAAAGCTA,-0.309
18,ATCGTATC,-0.175
19,GCAAGAAA,0.0635
20,AACTGCCG,0.264
21,CCGAGACG,-0.00753
22,CGCAAGAA,-0.0944
23,AATACCGG,0.417
24,CGCTCAGA,0.0527
25,CCTTCGGA,0.148

row,Sequence,PBM E-score
1,AGCGCATA,-0.0709
2,AACTGCCA,-0.186
3,CTTAGGTC,-0.0214
4,ATCCCACG,-0.0572
5,AGCATACG,-0.0276
6,CCTATAGC,-0.0839
7,ACGTCATA,-0.0901
8,CTAATATC,-0.00779
9,GCCAGATA,-0.0616
10,CCGTCAGC,0.0956
11,ACCATCAA,-0.205
12,CTCACTAA,-0.158
13,TCGACCAA,-0.271
14,GTGGCGTA,-0.0392
15,TATTCCAA,-0.198
16,CTGTTACC,0.172
17,GCGTAGAC,-0.143
18,ATGTTGTG,-0.0319
19,ACCGGCGC,0.336
20,ACCGCCAA,0.276
21,AGGAACTG,-0.197
22,CATTCTTA,-0.154
23,CGCCAAAA,0.00806
24,ACTTCGAC,-0.0543
25,CATGCTGG,-0.285

row,Sequence,PBM E-score
1,ATCCAAGA,-0.19
2,CTCTGATC,-0.204
3,GTGGAATA,-0.0368
4,ACTCCGCG,0.357
5,GACGAGCA,-0.21
6,ACGACAGA,-0.266
7,TGAGATAA,-0.0775
8,ACCAAAAC,-0.0352
9,TAACACTA,0.00416
10,ACCGGGAG,0.166
11,ATGTCTCC,0.257
12,AGGACCGG,0.306
13,GGACCGGA,0.278
14,CGTGAAGA,-0.0731
15,CTGGACGC,-0.144
16,GAATATCA,0.118
17,CCTTCTTA,-0.131
18,GGCAGCCA,-0.118
19,ATAAGATC,-0.0939
20,CACAACCG,-0.0538
21,CAGATCCC,0.0468
22,CTACTTGA,-0.202
23,ATGTGGAC,-0.126
24,ATGGACGA,-0.0936
25,GCTCTAGA,-0.0477

row,Sequence,PBM E-score
1,CCCCGGGA,0.268
2,AGAAGATC,-0.145
3,AAACCACC,0.244
4,CCTGCGGC,0.183
5,ACTACCCA,-0.293
6,AGCAACAT,-0.0631
7,CCGAGCTC,-0.0734
8,CCAGTGCA,-0.29
9,AGGTCATA,-0.0441
10,ACATAAAT,-0.052
11,CAGTCGAG,-0.233
12,GGACTAAC,0.195
13,AAAGAATG,-0.0317
14,AACCTCCT,-0.234
15,GACCTGGA,-0.086
16,AGCCTAAC,-0.0833
17,CAATCCGA,-0.0426
18,AGTGGCCC,-0.181
19,GCCCCACC,0.0597
20,CCGTGCTC,0.178
21,CCTCGTCC,-0.179
22,ATATGTTC,0.207
23,GGTATGAC,0.216
24,CCTCTGAA,-0.184
25,ATAATCAC,0.00531

row,Sequence,PBM E-score
1,TTACAAAA,-0.079
2,GGCCCAGA,-0.0979
3,AAGCCGAT,0.2
4,GGCGGCCA,0.0426
5,TATACTAA,-0.108
6,ATTTACGC,-0.025
7,ATATTCGG,0.0467
8,AGTTGAGA,-0.114
9,GCTTGCTA,-0.289
10,AAGTTTCA,-0.169
11,CGCACACA,0.111
12,GGCGCCAA,0.113
13,CGTCAGTC,0.0486
14,ACCGAGTC,-0.0245
15,ACCGACAG,0.363
16,CCCGACCC,0.247
17,ACTATATA,0.138
18,CTGATAAA,-0.0855
19,GATAGCCA,-0.26
20,AGGCCCAG,-0.226
21,CATGCTAC,-0.125
22,GCACAGAA,-0.141
23,CCGGAGTA,0.308
24,CTGCGTTC,-0.151
25,CATACCAA,0.0245

row,Sequence,PBM E-score
1,AGACGATC,-0.0318
2,ACTGGGAC,-0.183
3,AACAACGT,0.0245
4,GCACAGCA,-0.101
5,ATCGTCTG,0.029
6,CCCGCGGG,0.361
7,GGACCGTA,0.133
8,ACGTGCCA,-0.0713
9,CAGGCTAG,-0.239
10,ACGCACGA,0.0453
11,CTGTGAAA,-0.199
12,ATAGTTCG,0.0392
13,AAATTCCT,-0.0227
14,CGTGTCAG,0.0272
15,ATATACAT,-0.028
16,CCTCCAGC,-0.25
17,GAAACTAC,-0.126
18,CTTGTTCC,0.0415
19,CATTGTAG,-0.105
20,ACGACCTC,0.0629
21,AGGTATTG,-0.198
22,GAACACTA,-0.184
23,ATTGTTTA,-0.27
24,CTCGAACC,-0.0371
25,CACAGGAG,-0.148

row,Sequence,PBM E-score
1,CTGTGTGC,-0.193
2,CGCTACGA,0.0937
3,CGTGCCCC,-0.0709
4,TAACAGTA,-0.227
5,ACGTTACT,-0.186
6,TCAAAGCA,-0.0769
7,AACACAAA,-0.0729
8,CATTGTCG,0.126
9,ACAGTCAA,-0.247
10,GCGAGCTA,-0.101
11,AGAGTAAA,-0.179
12,GGACGCAA,0.148
13,ATAGTAAC,0.0164
14,ATGCGTCC,0.0995
15,ACCTGAAG,-0.043
16,GCGGACGA,0.198
17,AGCGCGTA,-0.0799
18,AAATAGGT,3e-05
19,AGTAAACT,-0.0545
20,ATCCCGAA,0.191
21,TAAATTGA,-0.0471
22,AGAGCATG,-0.229
23,AATGTTCT,-0.238
24,CTACTAAG,0.105
25,GTAGTCTA,-0.218

row,Sequence,PBM E-score
1,CGGTACTA,0.474
2,TGCATACA,-0.201
3,AGAGGGAA,-0.199
4,CCGCAACC,0.157
5,AATCGTTG,-0.104
6,CGGCAGAG,-0.0686
7,AAGTCATG,-0.0217
8,ACACATTC,-0.0785
9,CACTGAGA,-0.182
10,AAATGAGA,-0.261
11,GCGAGCAA,-0.102
12,CTCTAAAC,-0.0115
13,AACTCTAA,0.0552
14,GGATGATA,0.0598
15,CTGGCCAG,-0.418
16,ACGAGATG,-0.119
17,GCTCTCTA,-0.164
18,GCGTAAAA,0.131
19,ATGCGATG,-0.0566
20,CGTTGAAA,0.0722
21,CTTTTAGC,-0.118
22,TCACCAAA,-0.103
23,CCACTGAA,-0.0427
24,CATTAGCC,-0.018
25,AGCCGACC,0.167

row,Sequence,PBM E-score
1,GTTACCTA,-0.244
2,CGAAAACA,-0.0503
3,CAGGCTAA,-0.13
4,ATTTCCGC,0.27
5,CGAGAGCA,-0.0348
6,AGATCCGA,0.304
7,AACCGGTC,0.272
8,CTTGAAAA,-0.216
9,AATTTCCC,0.0307
10,ATCCCCTA,-0.101
11,AGACCGGA,0.222
12,AGCACAAG,-0.165
13,ACGCTCAA,-0.0749
14,CGCGCCCG,0.11
15,AAGCCTGT,-0.204
16,CGCCGCAC,0.216
17,CGACTGTC,-0.0325
18,CGCAAATC,0.0539
19,CTGCCACA,-0.133
